# Hit rate of the full screen: of about 150,000 compounds, about 540 (0.36%) showed an effect of 50% or more. This is one part of the list.
# System: Plasmodium falciparum
# Assay: Primary screen in NF54 nanoGlo assay, in single point, at 2uM, 72h; a lower Z score goes with more inhibition
# Assay type: functional, Erythrocyte
# Conditions: timepoint 72 hour
SMILES,% Inhibition [%],Z score
O=C(c1c[nH]c(-c2ccccc2)n1)N1C[C@@H]2[C@@H](CF)[C@@H]2C1,-4,0.72
CC(C)Cc1ccc(CN2CCC3(CC2)[C@H](O)C[C@@H]3OCCO)s1,-1,0.11
CCn1nccc1C(=O)N1C[C@H]2C(=O)N(CCOC)CCN2C(=O)[C@@H]1Cc1ccccc1,-17,1.53
CC(C)(NC(=O)c1ccoc1)c1nc2c(c(C(N)=O)n1)OCO2,-10,1.22
COc1cc(NS(=O)(=O)c2cc3c(cc2C)OCC(=O)N3)ccc1OCC(=O)N1CCOCC1,-7,0.99
CC[C@@H](C(=O)O)N(C)CC(C)(C)c1ccc(C)cc1,-7,0.88
O=C(c1cc2c(cn1)OCCC2)N1CCC(c2nnco2)CC1,1,-0.11
Cc1cccc(C)c1OCCOCCN(C)CCO,-1,0.23
COCCN1C[C@@H](CNC(=O)c2cc(Cl)c(C)c(Cl)c2)CC1=O,-4,0.4
Cc1nc(CN2C[C@@](C)(c3ccccc3)CCC2=O)n[nH]1,0,0
COc1ccc(-c2nn3ccn(CC(=O)N(C)C4CCCCC4)c(=O)c3c2CO)cc1,-1,0.14
COCCN1C[C@@H](CNC(=O)c2ccnn2C(C)C)CC1=O,-3,0.44
CC(C)(C)n1cnc(C(=O)N2Cc3ccccc3CO2)n1,4,-0.47
O=C(Nc1ccccc1)C(=O)N1CCC(CCC(=O)N2CCCC2)CC1,-8,1.45
CCc1nnc(CN2CC[C@H](c3cccc(C(F)(F)F)c3)C2)o1,-5,0.65
C[C@H](O)C1CCN(c2nnnn2CC2(Cc3ccccc3)CC2)CC1,-7,0.84
CCC(C)(C)C1CCCN1CC(=O)N1CCCC(C(N)=O)C1 (configuration not stated),-9,1.08
COc1ccc(-c2cc(-c3ccc(F)cc3)nc(-c3ccncc3)n2)cc1,2,-0.32
Cc1cc(-c2nnn(CC3CC4CCC3O4)n2)ccc1F (configuration not stated),-9,1.78

SMILES,% Inhibition [%],Z score
Cc1n[nH]c(C)c1C(C)CC(=O)N1CCCC(C2OCCO2)C1 (configuration not stated),5,-0.7
Cc1ncc(CNc2ccc(N(C)CCO)cn2)o1,-7,1.1
C[C@@H](C(=O)N1CCC(O)(CO)CC1)c1ccc(-c2ccccc2)c(F)c1,-4,0.51
NC(CN1CCc2ccccc21)=NOCc1nnc(C2CC2)o1,4,-0.56
O=C(CCn1nnc2ccccc21)N[C@H]1CC[C@H](n2cnnc2)CC1,-2,0.43
Cc1nn(C)cc1S(=O)(=O)Nc1ncn(Cc2ccccc2F)n1,-33,3.88
O=C(CCn1cncn1)NCCCCc1ccccn1,9,-1.34
COc1ccc(OCc2nc(-c3ccc4nnc(C)n4c3)no2)cc1,-14,2.59
CN(C)c1ccccc1NC(=O)NCC(=O)NCC1CC1,0,-0.05
Cc1nc2ccccc2n1CCn1cnc(C#N)c1C#N,-2,0.22
CCC(NCC1CCCn2ccnc21)c1ccc(F)cc1 (configuration not stated),3,-0.4
COc1ccc(-n2nc(-c3ccccc3)n(CC(=O)NCC3CC3)c2=O)cc1,-1,0.2
CCOC(=O)c1cnc(CN2CCNC(=O)[C@@H]2CC)s1,11,-1.9
CCC[C@H]1COCCN1Cc1ccc(C(=O)Nc2c(C)cnn2C)cc1,11,-1.28
C[C@H](NC1CCC(C(F)(F)F)CC1)c1ccccc1N(C)C (some centres not stated),2,-0.31
CCOC1(C)CCN(CC(=O)NCc2ccc(C)s2)CC1,-2,0.44
COc1ccc2c(c1)CN(CCC(=O)N(C)C)CC2,-7,0.74
O=C(N[C@H]1CCc2ccccc21)N1CCC(c2ncon2)CC1,-6,1.09
CCn1nc(C)c2c(-c3ccccc3)cc(O[C@@H](C)C(=O)NCCc3ccc(OC)c(OC)c3)nc21,8,-0.88

SMILES,% Inhibition [%],Z score
CC(C)(C)OC(=O)N1CC(c2ccnc(N)n2)C1,3,-0.5
Cc1cc(C(=O)NC[C@@H](O)c2cccc(Br)c2)on1,-2,0.43
Cc1ccc(O)c(C(=O)Nc2ncc(C3CCNCC3)s2)c1,-11,1.35
CN(CCc1noc(C2CCCCC2)n1)S(=O)(=O)c1ccccc1Cl,-9,1.45
Cc1cc(N2CCC(NS(C)(=O)=O)CC2)nc2cc3c(cc12)CCC3,7,-1.01
C#CCNC(=O)NCCc1ncc(CC)s1,-3,0.31
CCN1CC2(CCN(C(=O)c3c[nH]c(=O)c(Cl)c3)CC2)CC1=O,-1,0.22
Cc1cccc2ncnc(N3CCN(Cc4cccc(F)c4)CC3)c12,2,-0.33
CCc1csc(NC(=O)N(CC)CC(C)(C)O)n1,-6,0.74
C=C[C@H]1OCC[C@@H]1CNC(=O)N1CCC(CN2CCNC2=O)CC1,-11,1.15
O=S(=O)(c1cc(F)c(F)cc1F)N1CCO[C@H](C2CC2)C1,-9,1.27
Cc1ccc(-c2noc(C[C@H]3CCCCNC3=O)n2)c(OC2CCCC2)c1,12,-1.37
c1cnc(-n2cccn2)c(CNc2nc3ccccc3s2)c1,-16,2.52
COCCc1nc(C2CCN(C)CC2)n(Cc2ccccc2C)n1,-4,0.74
CO[C@H]1COCC[C@@H]1Nc1ncnc2[nH]ccc12,2,-0.43
Cn1ccc(C(=O)NC[C@@H]2CCCO2)n1,-5,0.95
Cc1ccc(OCC(=O)Nc2ccc3c(c2)C(=O)N(C)c2cc(C)ccc2O3)cc1,11,-1.24
O=C(CCc1ccccc1Br)N1CC(N2C(=O)CCC2=O)C1,-15,1.7

# From ChEMBL document CHEMBL4888484, “Replenishing the malaria drug discovery pipeline: Screening and hit evaluation of the MMV Hit Generation Library 1 (HGL1) against asexual blood stage Plasmodium falciparum ,using a nano luciferase reporter read-out” (2022)
